# Some of the results follow. The full chains were built here from the parent and the listed change. Inactive controls read about 0.05.
# B1: TEV protease; numbered along this chain (parent)
# chain: MGESLFKGPRDYNPISSSICHLTNESDGHTTSLYGIGFGPFIITNKHLFRRNNGTLVVQSLHGVFKVKDTTTLQQHLVDGRDMIIIRMPKDFPPFPQKLKFREPQREERICLVTTNFQTKSMSSMVSDTSCTFPSGDGIFWKHWIQTKDGQCGSPLVSTRDGFIVGIHSASNFTNTNNYFTSVPKNFMELLTNQEAQQWVSGWRLNADSVLWGGHKVFMVKPEEPFQPVKEATQL
# Variants of: B1
# Assay: raw area under fraction-flipped curve 0-4 h after induction (AUC4h, not background-subtracted), DNA-recorder readout of cleavage of the substrate (dimensionless); higher = more cleavage of the substrate by the protease variant
# Conditions: temperature: 34 °C; time window: 0-4 h after rhamnose induction
# Description: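 In vivo DNA recorder in E. coli TOP10(DE3) ΔrhaA at 34 °C. Each TEVp single-site mutant (parent TEVp 0) is paired with a single-site variant of the 7-mer TEVs (canonical ENLYFQ|S). The substrate sits between flexible linkers in a Bxb1-sfGFP-TEVs-SsrA fusion, so cleavage stabilises Bxb1 and speeds flipping of a recombination array, read by NGS. The value is the raw area under the fraction-flipped curve over 0-4 h after rhamnose induction (AUC4h), with ≥20 reads per time point. It is not background-subtracted; inactive controls average about 0.047.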
# 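Further: Bxb1 expression induced with 0.2% (w/v) L-rhamnose at OD600 near 0.5, cultures sampled hourly, flipped fraction per protease–substrate barcode pair counted by paired-end Illumina sequencing.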
Variant,area with substrate ENLYDQS,area with substrate ENLYEQS,area with substrate ENLYGQS,area with substrate ENLYHQS,area with substrate ENLYIQS,area with substrate ENLYKQS,area with substrate ENLYLQS,area with substrate ENLYMQS,area with substrate ENLYNQS,area with substrate ENLYPQS,area with substrate ENLYQQS,area with substrate ENLYRQS,area with substrate ENLYSQS,area with substrate ENLYVQS,area with substrate ENLYWQS,area with substrate ENLYTQS,area with substrate ENLYYQS
MGESLFKGPRDYNPISSSICHLTNESDGHTTSLYGIGFGPFIITNKHLFRRNNGTLVVQSLHGVFKVKDTTTLQQHLVDGRDMIIIRMPKDFPPFPQKLKFREPQREERICLVTTNFQTKSMSSMVSDTSCTFPSGDGIFWKHEIQTKDGQCGSPLVSTRDGFIVGIHSASNFTNTNNYFTSVPKNFMELLTNQEAQQWVSGWRLNADSVLWGGHKVFMVKPEEPFQPVKEATQL [W144E],0.075,0.13,0.0633,0.0799,0.111,0.0651,0.0782,0.0718,0.0655,0.0679,0.0629,0.063,0.0994,0.0832,0.0722,–,–
MGESLFKGPRDYNPISSSICHLTNESDGHTTSLYGGGFGPFIITNKHLFRRNNGTLVVQSLHGVFKVKDTTTLQQHLVDGRDMIIIRMPKDFPPFPQKLKFREPQREERICLVTTNFQTKSMSSMVSDTSCTFPSGDGIFWKHWIQTKDGQCGSPLVSTRDGFIVGIHSASNFTNTNNYFTSVPKNFMELLTNQEAQQWVSGWRLNADSVLWGGHKVFMVKPEEPFQPVKEATQL [I36G],0.0401,–,0.0203,–,–,–,0.0316,0.0661,0.0608,–,–,0.0654,–,0.0434,0.0593,–,–
MGESLFKGPRDYNPISSSICHLTNESDGHTTSLYGIGFGPFIITNKHLFRRNNGTLVVQSLHGVFKVKDTTTLQQHLVDGRDMIIIRMPKDFPPFPQKLKFREPQREERICLVTTNFQTKSMSSMVSDTSCTFPSGDGIFWKHWIQTKDGQCGSPLVSTRDGFIVGIHSASNKTNTNNYFTSVPKNFMELLTNQEAQQWVSGWRLNADSVLWGGHKVFMVKPEEPFQPVKEATQL [F173K],0.0849,–,0.0779,–,0.0727,–,–,0.0777,0.0626,0.0783,–,–,0.0663,–,–,–,–
MGESLFKGPRDYNPISSSICHLTNESDGHTTSLYGIGFGPFIITNKHLFRRNNGTLVVQSLHGVFKVKDTTTLQQYLVDGRDMIIIRMPKDFPPFPQKLKFREPQREERICLVTTNFQTKSMSSMVSDTSCTFPSGDGIFWKHWIQTKDGQCGSPLVSTRDGFIVGIHSASNFTNTNNYFTSVPKNFMELLTNQEAQQWVSGWRLNADSVLWGGHKVFMVKPEEPFQPVKEATQL [H76Y],0.0932,0.0556,0.0665,–,0.0937,0.0453,–,–,0.0704,0.0731,0.061,0.0601,0.0779,0.0927,–,0.0772,0.0661
MGESLFKGPRDYNPISSSICHLTNESDGHTTSLYGIGFGPFIITNKHLFRRNNGTLVVQSLHGVFKVKDTTTLQQHLVDGRDMIIIRMPKDFPPFPQKLKFREPQREERICLVTTNFQTKSMLSMVSDTSCTFPSGDGIFWKHWIQTKDGQCGSPLVSTRDGFIVGIHSASNFTNTNNYFTSVPKNFMELLTNQEAQQWVSGWRLNADSVLWGGHKVFMVKPEEPFQPVKEATQL [S123L],0.047,0.09,0.0584,0.0693,0.11,–,0.0871,0.0826,–,–,–,–,–,–,0.0806,0.0774,0.0694
MGESLFKGPRDYNPISSSICHLTNESDGHTTSLYGIGFGPFIITNKHLFRRNNGTLVVQSLHGVFKVKDTTTLQQHLVDGRDMIIIRMPKDFPPFPQKLKFREPQREERICLVTTNFQTKSMSSMVSDTSCTFPSGDGIFWKHWIQTKDGQCGSPLVSTRDGFIVGIHSASNFTNTNNYFTSVPKNFMELLTNQEAQQWVSGWRLNADSVLWGHHKVFMVKPEEPFQPVKEATQL [G214H],0.0551,–,0.0558,–,–,–,–,–,–,0.0523,–,–,0.0578,–,–,0.101,–
MGESLFKGPRDYNPISSSICHLTNESDGHTTSLYGIGFGPFIITNKHLFRRNNGTLVVQSLHGVFKVKDTTTLQQHLVDGRDMIIIRMPKDFPPFPQKLKFREPQREERICLVTTNFQTKSMSSMVSDTSCTFPSGDGIFWKHWIQTKDGQCGSTLVSTRDGFIVGIHSASNFTNTNNYFTSVPKNFMELLTNQEAQQWVSGWRLNADSVLWGGHKVFMVKPEEPFQPVKEATQL [P155T],0.0866,–,0.049,0.0419,–,–,–,0.0595,0.0592,–,0.0491,0.0582,0.0543,0.113,0.072,–,0.0475
MGESLFKGPRDYNPISSSICHLTNESDGHTTSLYGIGFGPFIITNKHLFRRNNGTLVVQSLHGVFKVKDTTTLQQHLVDGRDMIIIRMPKDFPPFPQKLKFREPQREERICLVTTNFQTKSMSSMVSDTSCTFPSGDGIFWKHWIQTKDGQCGSPLVSTRDGFIVGIHSASNFTNTNNYFTSVPKNFMELLTNQEAQQWVSGWRLNADSVLWGGYKVFMVKPEEPFQPVKEATQL [H215Y],0.0625,0.0721,0.0585,–,0.0679,–,–,0.0717,0.0648,–,0.0612,–,–,–,0.0658,0.0506,–
MGESLFKGPRDYNPISSSICHLTNESDGHTTSLYGIGFGPFIITNKHLFRRNNGTLVVQSLHGVFKVKDTTTLQQHLVDGRDMIIIRMPKDFPPFPQKLKFLEPQREERICLVTTNFQTKSMSSMVSDTSCTFPSGDGIFWKHWIQTKDGQCGSPLVSTRDGFIVGIHSASNFTNTNNYFTSVPKNFMELLTNQEAQQWVSGWRLNADSVLWGGHKVFMVKPEEPFQPVKEATQL [R102L],0.048,0.0503,0.0612,0.0589,0.0635,–,–,0.048,0.0483,0.0392,–,–,0.0503,0.0534,0.0545,–,0.0588
MGESLFKGPRDYNPISSDICHLTNESDGHTTSLYGIGFGPFIITNKHLFRRNNGTLVVQSLHGVFKVKDTTTLQQHLVDGRDMIIIRMPKDFPPFPQKLKFREPQREERICLVTTNFQTKSMSSMVSDTSCTFPSGDGIFWKHWIQTKDGQCGSPLVSTRDGFIVGIHSASNFTNTNNYFTSVPKNFMELLTNQEAQQWVSGWRLNADSVLWGGHKVFMVKPEEPFQPVKEATQL [S18D],0.0514,0.0574,–,0.0636,0.1,0.0819,–,–,–,0.0719,–,0.0779,0.052,–,–,0.0684,–

# — the supplement of paper PMC12217912
